PubChem BioAssay AID757 (NMMLSC, 2007)
Screen size: about 190,000 compounds; about 520 (0.27%) were called active. The inconclusive results got no clear call from the source; some entries with a clear call stand among them for comparison.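 How the source made its calls: active means GTP binding activity at least 20 points away from the 100% control level, either lower or higher; inconclusive means compound flagged as likely green fluorescent, judged across all proteins; inactive means the rest.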

Biological target: Ras-related C3 botulinum toxin substrate 1 (Homo sapiens) (UniProt P63000)
Assay: wildtype Rac1 GTP binding modulators, primary screen, biochemical, GST-Rac1 beads, flow cytometry, multiplex (AID 757)
Settings: fluorescent GTP binding, at 10 µM, actives lie on both sides, 0 = cold GTP competed, 100 = untreated

Compound | GTP binding activity (% of control)
CCN1CCN(C(=O)CN(C)S(=O)(=O)c2ccc3ccccc3c2)CC1 | inconclusive: 93%
CC(C)c1csc(CN2CCC(N3CCC(C(=O)N4CCOCC4)CC3)CC2)n1 | inactive: 101%
COCCSc1ccccc1C(=O)Nc1cc(C)on1 | inconclusive: 108%
Cc1ccc2cc3cc(C(=O)N4CC(C)CC(C)C4)oc3nc2c1 (stereo not given) | inconclusive: 102%
Cc1ccc(OCc2nnc(SCC(=O)c3cccs3)n2-c2ccccc2)cc1C | inconclusive: 103%
O=[N+]([O-])c1ccccc1/C=C/C=N/n1c(-c2ccco2)n[nH]c1=S | active: 77%
COc1ccccc1NC(=O)C1=C(C)NC(=O)NC1c1cccc(OC)c1OC (stereo not given) | inconclusive: 112%
Cc1nc2sc(C(=O)Nc3ccccc3)c(N)c2c(C)c1[N+](=O)[O-] | inactive: 93%
COC(=O)c1cc(C(=O)NCc2ccccc2)c(=O)[nH]c1C | inactive: 102%
O=C(O)CC(Cc1ccccc1)C(=O)NCC12CC3CC(CC(C3)C1)C2 (stereo not given) | inactive: 92%
COc1ccccc1CN(Cc1nc2ccccc2c(=O)[nH]1)C(=O)Nc1cccc(C)c1 | inactive: 105%
COC(=O)CN(c1nc(C)cc(OC)n1)S(=O)(=O)c1ccccc1 | inconclusive: 107%
O=C(CCl)Nc1ccc(Oc2cnc3ccccc3n2)cc1 | inactive: 102%
COc1ccccc1-c1c(C)oc2cc(OCC(=O)OCc3ccccc3)ccc2c1=O | inconclusive: 114%
C(=N\Nc1nc(N2CCCC2)nc(N2CCCC2)n1)/c1ccccc1OCc1ccccc1 | inconclusive: 97%
Cc1nnc2c3ccccc3c(Cl)nn12 | inactive: 92%
O=C(CCC(=O)N1CCCC1)Nc1nnc(C(F)(F)F)s1 | inconclusive: 103%
O=C(NNc1cccc(Cl)n1)c1c(Cl)cccc1Cl | inconclusive: 107%
CCOC(=O)c1ccc2c(c1)nc(SCc1cn3ccsc3n1)n2CC | inactive: 107%
Cc1ccc(C)c(N(CC(N)=O)S(C)(=O)=O)c1 | active: 67%
CCn1cc(CNC(=S)Nc2cccc(Cl)c2C)cn1 | inactive: 101%
COc1nc(Nc2ccc(O)cc2)nc(OC(C(F)(F)F)C(F)(F)F)n1 | inconclusive: 146%
Cc1cc(Cl)nc(-c2ccccc2)n1 | inconclusive: 92%

Compound | GTP binding activity (% of control)
Cc1c(C(=O)N2CCCCC2)sc(NC(=O)C(C)C)c1C#N | inconclusive: 106%
CCOc1cc(S(=O)(=O)NCc2ccc3c(c2)OCO3)c(C)cc1C | inconclusive: 92%
COc1cccc(CSc2nc3sc(C)c(C)c3c(=O)n2Cc2ccco2)c1 | inconclusive: 99%
COc1ccc(-n2c(O)c(C=NCC(c3ccco3)N3CCCC3)c3ccccc3c2=O)cc1OC (stereo not given) | inactive: 102%
Cc1cccc2sc(NC(=O)C3CCCN(S(=O)(=O)c4cccc5nonc45)C3)nc12 (stereo not given) | inconclusive: 116%
COc1cc(/C=N/NC(=O)CN(Cc2ccccc2)S(=O)(=O)c2ccc3c(c2)OCCO3)ccc1O | active: 78%
COc1ccc(OC)c(NC2=NC3(CCCCC3)N=C(N)N2)c1 | inconclusive: 85%
Cc1cccc(NC(=O)CN(C)S(=O)(=O)c2cccs2)c1 | inconclusive: 89%
Cc1c(N=C2N=C(NC(=O)c3ccc(F)cc3)c3ccccc32)c(=O)n(-c2ccccc2)n1C | inactive: 96%
O=C(Nc1nccs1)c1ccc(-c2cccc([N+](=O)[O-])c2)o1 | active: 76%
C#CCOCCOCCOCCNc1nc(N2CCN(C(=O)[C@H](CCCCN)n3cc(C(N)CO)nn3)CC2)nc(N2CCN(C(=O)[C@H](CCC(=O)O)n3cc(C(N)[C@H](C)CC)nn3)CC2)n1 (stereo not given in full) | inactive: 100%
COc1cc(/C=C(/C#N)c2ccc(F)cc2)ccc1Oc1ccc([N+](=O)[O-])cn1 | inconclusive: 105%
Oc1ccc(/C=N/Nc2nc(N3CCCCCC3)nc(N3CCCCCC3)n2)c(O)c1 | inconclusive: 93%
COc1cccc(N=c2oc3c(C)ncc(CO)c3cc2C(N)=O)c1 | inconclusive: 91%
O=C(Cn1c(-c2cscn2)nc2ccccc21)Nc1cc(F)ccc1F | active: 121% [activator]
COc1ccc(N(C(=O)c2cccnc2)S(=O)(=O)c2cccs2)cc1 | inactive: 97%
CCOC(=O)c1ccc(NC(=S)N2CCCC2)cc1 | inactive: 96%
Cc1cc2ccccn2c1C(=O)c1cc([N+](=O)[O-])cc([N+](=O)[O-])c1 | active: 32%
c1ccc(-c2csc(N3CCOCC3)n2)cc1 | inconclusive: 104%
CCOc1ccc(NC(=O)CNC(=O)c2ccc([N+](=O)[O-])cc2)cc1 | inactive: 98%
O=C(C1=C[C@H](c2coc3ccccc3c2=O)C[C@H](OCCCCO)O1)N1CCOCC1 | inactive: 101%
COc1ccc(OCC(=O)Nc2nonc2NC(=O)COc2ccc(OC)cc2)cc1 | active: 79%
Cc1c(C(=O)C(=O)NCc2cccs2)c2ccccc2n1C | inactive: 98%

Compound | GTP binding activity (% of control)
CSc1nnc(C)c(/C=C/Nc2ccc(C)cc2)n1 | inconclusive: 78%
Cc1ccccc1NC(=O)c1ccc(NC(=O)C2CC(=O)OC23CCCCC3)cc1 (stereo not given) | inactive: 80%
CCOC(=O)C(/C(C)=N/NC(=O)C1CC1c1ccccc1)C(C)C (stereo not given) | inactive: 105%
COc1ccc(S(=O)(=O)N2CCN(CC(=O)Nc3cccc(F)c3)CC2)cc1 | inconclusive: 111%
CC(C)(C)NC(=O)Cn1cnc2cc([N+](=O)[O-])ccc2c1=O | inconclusive: 92%
O=C(O)C1C2C=CC(C2)C1C(=O)N1CCOCC1 (stereo not given) | active: 33%
CC(C)(C)C1=C(C#N)C(c2cccnc2)C(C#N)=C(N)O1 (stereo not given) | inconclusive: 105%
Cc1ccc(-c2cc(=O)[nH][nH]2)c(C)c1 | inconclusive: 105%
COc1ccc(-c2nnc(S/C(=C/c3ccc(Cl)cc3)C(=O)O)o2)cc1 | inactive: 81%
C=CCNc1nc(N)c(C(=C(C#N)C#N)c2ccc(Br)cc2)s1 | inconclusive: 89%
Cc1ccc(N=C2S/C(=C\c3cn(CC(=O)O)c4ccccc34)C(=O)N2C)cc1 | inconclusive: 90%
CCN(CC)C(=O)CSc1nc2ccccc2c(=O)n1-c1cccc(OC)c1 | inconclusive: 106%
Cc1cccc(NC(=O)c2ccc([N+](=O)[O-])cc2Cl)n1 | inconclusive: 106%
Cc1ccc(C(=O)n2nc(-n3cccc3)c3c(C)cc(C)nc32)cc1 | inconclusive: 90%
Cc1ccc(-c2cc(C(=O)NCc3cccs3)no2)cc1 | inconclusive: 88%
O=C(NNC(=O)c1ccc(Cl)cc1Cl)c1cccs1 | inactive: 96%
COc1ccc2ccccc2c1/C=N/NC(=S)Nc1cc(S(=O)(=O)N2CCOCC2)ccc1N1CCOCC1 | inactive: 106%
O=C(COc1cccc(Cl)c1)Nc1nc(-c2ccc(S(=O)(=O)N3CCOCC3)cc2)cs1 | inconclusive: 102%
O=C1Nc2ncccc2OC1CCO (stereo not given) | inactive: 109%
COc1ccc(C(=O)CC(Nc2ccc([N+](=O)[O-])cc2)c2ccc(Cl)cc2)cc1 (stereo not given) | inactive: 96%
Cc1sc2nc3c4ccccc4c(NCc4ccco4)nn3c(=O)c2c1C | inactive: 83%
CN(CCCNC(=O)c1cn(C)c2ccc(S(=O)(=O)N(C)C)cc2c1=O)c1ccccc1 | inconclusive: 107%
O=C(N/N=C/c1ccc2nccnc2c1)c1cccc([N+](=O)[O-])c1 | active: 77%

Compound | GTP binding activity (% of control)
O=C1Cn2c(nc3ccccc32)-c2ccccc2N1 | inconclusive: 98%
Cc1cccn2cc(-c3ccc(Cl)cc3)nc12 | inactive: 93%
Nc1[nH]n2c(=O)c3c(nc2c1N=Nc1ccccc1)CCCC3 | inactive: 85%
Cc1noc2ncnc(N3CCN(c4cccc(Cl)c4)CC3)c12 | inactive: 96%
Cc1ccc(C2(C)NC(=O)N(CCOc3ccccc3)C2=O)cc1 (stereo not given) | inconclusive: 105%
CC1(C)CC(O)C(C(O)c2cccc([N+](=O)[O-])c2)C(C)(C)N1 (stereo not given) | inconclusive: 105%
COc1ccc(S(=O)(=O)NNC(=O)c2cccs2)cc1 | inconclusive: 92%
CCOC(=O)/C(=N\Nc1ccccc1Cl)N(C)C1CCCCC1 | inactive: 93%
Cc1ccc(-c2nc3ccccc3[nH]2)cc1NC(=O)c1ccc2c(c1)OCO2 | inconclusive: 105%
Cc1cc(NC(=O)c2cc3n(n2)C(C(F)(F)F)CC(c2ccco2)N3)no1 (stereo not given) | inconclusive: 104%
CC1CCc2cc(F)ccc2N1C(=O)CSc1nnc2c(n1)[nH]c1ccc(F)cc12 (stereo not given) | inconclusive: 87%
COc1ccc(C(=O)NC(C)(C)C)cc1S(=O)(=O)N1CCCC1 | inconclusive: 105%
COc1ccc(/C=N/NC(=S)Nc2cc(S(=O)(=O)N3CCOCC3)ccc2N2CCOCC2)cc1O | active: 136% [activator]
CCc1ccc(N2C(=O)C3ON(c4ccccc4)C(c4ccco4)C3C2=O)cc1 (stereo not given) | inconclusive: 106%
COc1cccc(N2CCN(C(=O)CCCCCNc3nc(=S)[nH]c4ccccc34)CC2)c1 | active: 74%
CC(C)(C)c1ccc(C(=O)NC(=S)Nn2cnnc2)cc1 | inconclusive: 100%
O=C(O)CCN1C(=O)/C(=C/c2ccc(-c3nc4ccccc4s3)o2)SC1=S | inconclusive: 66%
COc1ccc(/C=C/C(=O)NC(=S)Nc2ccc(S(=O)(=O)Nc3nccnc3OC)cc2)cc1 | inconclusive: 87%
S=c1nc(-c2sccc2OCc2ccc(Cl)cc2Cl)[nH][nH]1 | inactive: 99%
C=CCOc1cccc(C(=O)N2CCCC(CNS(=O)(=O)c3cccs3)C2)c1 (stereo not given) | inactive: 96%
CCN(CC)CCN(C(=O)c1c(F)cccc1F)c1nc2cc(C)cc(C)c2s1 | inactive: 98%
